# Reference: the supplement of paper PMC3334620
# In all, about 33,000 sequences were measured (“E-score (-0.5 to 0.5)”: median about -0.041, highest 2% from about 0.37 on). The list shows a part of the results.
# Biological target: T1, Ecm22 (UniProt Q05958)
# T1 sequence: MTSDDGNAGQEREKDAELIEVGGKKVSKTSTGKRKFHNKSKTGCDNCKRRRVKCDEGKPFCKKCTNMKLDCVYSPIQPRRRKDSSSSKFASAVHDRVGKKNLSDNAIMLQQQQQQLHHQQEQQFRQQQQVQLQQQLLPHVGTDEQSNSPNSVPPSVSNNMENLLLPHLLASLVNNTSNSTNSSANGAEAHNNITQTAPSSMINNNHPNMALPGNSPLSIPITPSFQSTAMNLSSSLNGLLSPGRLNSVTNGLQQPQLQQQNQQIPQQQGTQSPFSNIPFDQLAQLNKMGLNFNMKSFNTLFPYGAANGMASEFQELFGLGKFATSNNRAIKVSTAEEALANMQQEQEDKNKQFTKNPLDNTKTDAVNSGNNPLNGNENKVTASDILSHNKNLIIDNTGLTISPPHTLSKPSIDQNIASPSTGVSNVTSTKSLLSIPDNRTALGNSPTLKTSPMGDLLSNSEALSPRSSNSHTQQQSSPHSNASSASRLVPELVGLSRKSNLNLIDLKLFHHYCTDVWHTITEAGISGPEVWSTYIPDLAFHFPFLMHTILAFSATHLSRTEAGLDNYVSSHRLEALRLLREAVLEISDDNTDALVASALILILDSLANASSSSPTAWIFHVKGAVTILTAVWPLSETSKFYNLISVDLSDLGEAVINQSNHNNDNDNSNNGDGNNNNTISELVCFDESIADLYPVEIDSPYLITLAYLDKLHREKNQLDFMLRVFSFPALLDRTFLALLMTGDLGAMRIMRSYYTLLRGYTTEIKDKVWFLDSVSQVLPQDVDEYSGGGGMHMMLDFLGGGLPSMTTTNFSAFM
# Experiment: PBM E-score (8-mer binding enrichment) (E-score (-0.5 to 0.5)); higher = stronger / more preferred TF binding; most listed sequences are background and not binding sites
# Details: protein concentration: 200 nM; construct: GST-full length
# Summary of the method: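 Universal all-10-mer Agilent arrays, double-stranded by primer extension on fresh or once-stripped slides, were probed with about 100-200 nM GST-tagged yeast transcription factors made by PURExpress. Fluorescent anti-GST detected bound protein, and masliner normalised the scans. E-scores from the Universal PBM Analysis Suite were given to each ungapped eight-base word pooled with its reverse complement.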
row,Sequence,PBM E-score
1,GTAAGCAA,0.0172
2,AATACTTA,-0.0365
3,TACGAGGA,0.466
4,AATGCAAC,0.111
5,CTTTTGGC,-0.116
6,ATACTTAA,-0.0444
7,TAATTCGA,0.108
8,ATTTCAGC,-0.147
9,CTGACATC,-0.112
10,GGCGCGCA,0.0518
11,TCCTGCGA,-0.0216
12,ATGCTTTA,0.0831
13,CGGAGGTA,-0.148
14,AGAGGTCG,0.0428
15,AGCTTTTC,-0.0653
16,CTCGAGTA,0.114
17,AGGTTACG,0.157
18,CTTGTAAC,0.184
19,CTATAAGA,-0.128
20,ACCACCAG,-0.0822
21,GCCCTTAC,-0.258
22,ACTCGAGA,0.0745
23,CAGGGGCC,-0.292
24,GCGGGCAC,-0.172
25,CTCCTCAG,-0.0882

row,Sequence,PBM E-score
1,GTCATCGA,-0.0778
2,TCCGTCGA,0.0392
3,CTTCCAGC,-0.288
4,TCGAAACA,0.0188
5,AGTTTGGG,-0.23
6,AGCGGATC,0.243
7,AGCAAAAC,-0.151
8,AATGATGC,0.0148
9,AATCAGTG,-0.197
10,CCGTTAAG,0.189
11,TGCAATAA,-0.0622
12,GATCAGCC,-0.181
13,AACGTGAC,-0.049
14,CGGATTGA,0.0342
15,ATTGACGG,0.0598
16,CGGTAGAA,-0.129
17,ACCCGCTA,-0.194
18,ATTCTGTA,-0.0226
19,AGAAGTAA,-0.177
20,CGACACCC,0.0694
21,CATGTCCC,-0.075
22,CGCATCTA,0.145
23,AAATTATG,-0.098
24,CTGCCATC,0.117
25,AAGTGGTC,-0.127

row,Sequence,PBM E-score
1,GAGGTACC,0.083
2,GATACTGA,0.0803
3,GCTGCTAC,0.124
4,CCATCTAG,-0.193
5,CGTTTACA,0.405
6,GGGCCGAC,-0.119
7,CCCATTAC,-0.101
8,ACTCGGCG,0.165
9,CTTGCTAA,-0.194
10,ACCGTATG,0.325
11,ACCAAGAT,-0.0873
12,AGTGAAGG,-0.194
13,CCACCAAA,-0.13
14,CCATGGGA,-0.169
15,AGCCCCAT,-0.174
16,CCTGGGTA,-0.162
17,CATGAGAA,-0.109
18,CTTCCGTC,0.0605
19,CCGGGGCA,-0.174
20,AAAACCCT,-0.223
21,CCATTCAC,0.0859
22,CATGCGAG,0.239
23,AAGAAAGG,-0.12
24,AGCTTCAG,-0.343
25,AGAAAATG,0.0291

row,Sequence,PBM E-score
1,GCTGAGCC,-0.136
2,ACAGGGAT,-0.0808
3,ATCGAAGC,0.0667
4,ACCAACCA,-0.00535
5,CGTCGTTC,0.479
6,CAGGGACC,-0.0874
7,CAGGTAAA,0.00568
8,CACACCGA,0.146
9,ACATAACT,-0.114
10,GGTTGACA,-0.115
11,ACCGATGC,0.159
12,CAAGAGCG,0.0517
13,GTAGACAC,-0.043
14,CGGTGTGA,0.0529
15,GAATGCGC,0.112
16,ATGACTAA,-0.0589
17,CCTGGGGA,-0.315
18,ACAGGCAA,-0.0236
19,GACGGGTA,-0.129
20,CATAGGGC,-0.204
21,ATATGATC,0.0897
22,AGAGCGGC,-0.228
23,ATTGCCAA,0.0792
24,GTGAAGCA,-0.0753
25,GCCAAAGA,-0.124

row,Sequence,PBM E-score
1,AATGTGGA,-0.0638
2,CATTCAGG,-0.293
3,AAGGAAAG,-0.0693
4,CCCTTATA,0.0391
5,AACGGGGC,0.223
6,CTCAAGTC,-0.126
7,AACGTCAA,0.0535
8,CTTGTGAA,-0.226
9,AAACGCCA,0.00397
10,ATAGGACC,-0.133
11,AATATGGT,0.116
12,AAGGTGCA,-0.231
13,CGTAGTCC,0.0185
14,CTCATGCA,-0.0852
15,TTATTAAA,0.0128
16,GGCATGCC,0.212
17,AGTAGCCA,-0.266
18,ATTTTCTC,-0.117
19,GATTGATA,-0.0432
20,AGATTCGA,-0.118
21,AAAGACCT,-0.212
22,CTGATAGA,-0.0586
23,CATGCTGC,-0.168
24,ATAAGATG,0.0715
25,CATATGTC,0.0627

row,Sequence,PBM E-score
1,ATACCACC,-0.0197
2,CATGCTAG,-0.0159
3,CTCTATCC,-0.157
4,GGTTCTAC,0.00375
5,GTCGACTA,0.102
6,CTTGCTCC,-0.205
7,AATTCAAG,0.039
8,ACTTGGGA,-0.216
9,GCTCAAAA,-0.103
10,CACTCTAC,-0.0474
11,ACCAGCAG,-0.232
12,TCAAACCA,0.071
13,CGGTGGTC,0.193
14,ACATTCAT,-0.178
15,AGCCAGGA,-0.0313
16,ATCGGGCA,-0.122
17,GGCTCACC,-0.219
18,TGCAACAA,-0.0872
19,GTATTAGA,0.173
20,GCGGAGCC,0.0562
21,GATGGGAA,-0.122
22,AGGTTAAG,-0.253
23,CGCCCCGA,0.0029
24,CCTGAAGG,-0.243
25,GCACAAAC,-0.0651

row,Sequence,PBM E-score
1,CCCCAACA,-0.243
2,CGGCCTAA,0.0558
3,GGCGAGCC,-0.0648
4,CGGTAACG,0.19
5,CTAGCGAA,0.00449
6,AGATGAAA,0.0166
7,CATCGATC,-0.00764
8,CAGACGCA,-0.169
9,AGTTCCAG,-0.172
10,GTGACGTA,0.114
11,AGAGTTCG,0.166
12,CGTAAGGA,0.271
13,ATCGATGA,-0.0837
14,CCTCTCCC,-0.214
15,CCAGTCGC,0.0247
16,ACCTACGA,0.24
17,AGTGCCGC,-0.167
18,CAGGCCTA,-0.218
19,CACTGATA,-0.135
20,CCTCAGAA,-0.131
21,CAACCATG,-0.151
22,CCGCGGCA,-0.165
